Where “and” joins values, the source holds several entries; their conditions need not be identical. Equal values may be shown once. More than one record can exist for a structure, and the calls need not agree. Calls of active or inactive are those of the source. Unless noted, calls come from the whole dose curve; as a rule, active = well fitted curve in the direction sought with a large enough effect in the repeat runs; inconclusive = weak or mixed curves; inactive = no such curve, though single readings can be large; an effect the other way counts as inactive or inconclusive.
Assays:
[1] = qHTS assay for small molecule agonists of the p53 signaling pathway - cell viability (AID 651633; calls by dose curve; note: nearly all actives have a fitted effect of over 30% in size; note: potency is the fitted concentration of half-maximal effect)
In short: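 Viability counter-read: CellTiter-Glo luminescence (30 min, room temperature) in the same p53RE-bla plates. These plates had been exposed to compounds for 16 h at 37 C.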

[2] = qHTS assay for small molecule disruptors of the mitochondrial membrane potential - cell viability (AID 720634; calls by dose curve; note: nearly all actives have a fitted effect of over 20% in size; note: potency is the fitted concentration of half-maximal effect)
In short: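 Measuring cytotoxicity alongside mitochondrial potential, the screen quantified ATP by luminescence in HepG2 cells after 1 hr compound incubation and a 30 min room-temperature CellTiter-Glo step.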

[3] = qHTS assay for small molecule disruptors of the mitochondrial membrane potential (AID 720635); settings: HepG2 mitochondrial membrane potential, Mito-MPS dye ratio; note: potency is the fitted concentration of half-maximal effect; for ratio activity, negative = MMP loss: % is set by controls: 0 for no effect and ±100 for the full control effect
In short: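 Mitochondrial membrane potential tracked with Mito-MPS dye, red aggregates (ex 540/em 590 nm) against green monomers (ex 490/em 535 nm). Compound treatment 1 hr at 37C, dye 30 min in HepG2.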

[4] = target: Glucocorticoid receptor (Homo sapiens) (UniProt P04150); assay: qHTS assay to identify small molecule agonists of the glucocorticoid receptor (GR) signaling pathway (AID 720691; active = well fitted activation curve with a large enough effect in the signal ratio in the repeat runs, not every such curve was filed as active; inconclusive = weak or mixed curves, or effect the other way; inactive = no such curve, though single readings can be large or run the other way; the % refers to the signal ratio; note: potency is the fitted concentration of half-maximal effect); settings: GR-bla HeLa, beta-lactamase reporter ratio, 18 h; activation: at 62.4 µM (top of the series) unless noted
UniProt P04150, sequence (P04150 whole entry, looked up): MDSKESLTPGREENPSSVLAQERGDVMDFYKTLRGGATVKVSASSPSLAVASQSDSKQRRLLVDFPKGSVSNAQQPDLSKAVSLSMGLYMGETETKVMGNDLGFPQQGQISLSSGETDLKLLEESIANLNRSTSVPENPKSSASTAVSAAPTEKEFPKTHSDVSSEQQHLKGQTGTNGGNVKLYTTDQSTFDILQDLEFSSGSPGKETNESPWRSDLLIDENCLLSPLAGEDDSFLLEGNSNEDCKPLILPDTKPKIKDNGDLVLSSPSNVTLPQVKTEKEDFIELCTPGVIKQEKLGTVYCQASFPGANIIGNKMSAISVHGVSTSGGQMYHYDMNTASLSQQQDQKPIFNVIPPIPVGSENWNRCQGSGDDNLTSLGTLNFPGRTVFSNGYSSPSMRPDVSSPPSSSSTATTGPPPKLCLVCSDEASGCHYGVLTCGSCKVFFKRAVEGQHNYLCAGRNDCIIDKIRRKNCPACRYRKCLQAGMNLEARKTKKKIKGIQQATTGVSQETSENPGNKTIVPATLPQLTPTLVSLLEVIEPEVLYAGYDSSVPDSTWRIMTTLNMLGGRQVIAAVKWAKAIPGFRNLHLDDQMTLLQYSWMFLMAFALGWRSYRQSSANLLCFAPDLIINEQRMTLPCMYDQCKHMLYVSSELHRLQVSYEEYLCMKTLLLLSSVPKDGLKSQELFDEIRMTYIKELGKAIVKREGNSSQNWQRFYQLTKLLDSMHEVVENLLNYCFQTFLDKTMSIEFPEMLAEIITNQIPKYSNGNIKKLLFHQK
In short: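 Reporter read-out: fluorescence intensity following 2 h room-temperature LiveBLAzer B/G FRET substrate loading. Prior step: GR-bla HeLa cells held 4 h, then treated 18 h at 37 C.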

[5] = target: Glucocorticoid receptor (Homo sapiens) (UniProt P04150); assay: qHTS assay to identify small molecule antagonists of the glucocorticoid receptor (GR) signaling pathway (AID 720692; active = well fitted inhibition curve with a large enough effect in the signal ratio in the repeat runs, not every such curve was filed as active; inconclusive = weak or mixed curves, or effect the other way; inactive = no such curve, though single readings can be large or run the other way; the % refers to the signal ratio; note: potency is the fitted concentration of half-maximal effect; for activity change, negative = inhibition: % is set by controls: 0 for no effect and ±100 for the full control effect); settings: GR-bla HeLa, beta-lactamase FRET ratio, dexamethasone-stimulated, 18 h; activity change, negative = inhibition: at 58.5 µM (top of the series) unless noted
In short: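 Dexamethasone (5 nM final) stimulated a stably integrated GRE-beta-lactamase reporter in HeLa cells during 18 h co-incubation with compounds; signal was quantified as fluorescence intensity of B/G FRET substrate after 2 h.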

[6] = qHTS assay for small molecules that induce genotoxicity in human embryonic kidney cells expressing luciferase-tagged ATAD5 (AID 651632); note: nearly all actives have a fitted effect of over 15% in size; note: potency is the fitted concentration of half-maximal effect; for activation: % is set by controls: 0 for no effect and ±100 for the full control effect
In short: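 Reporter cells (HEK293T) express luciferase-tagged ATAD5, a protein that accumulates after DNA damage. Treat 16 hr at 37C/5% CO2, add Amplite, wait 30 min at RT, and read luminescence.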

[7] = qHTS assay for small molecules that induce genotoxicity in human embryonic kidney cells expressing luciferase-tagged ATAD5 - cell viability (AID 651634; calls by dose curve; note: potency is the fitted concentration of half-maximal effect; nearly all actives have a fitted effect of over 25% in size)
In short: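 Seeding of 2,000 HEK293T ATAD5-luciferase cells per well preceded pin-tool compound transfer. Plates sat 15.5 hr at 37C under 5% CO2, then fluorescence was read after 30 min with CellTiter-Fluor.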

[8] = qHTS assay to test for compound auto fluorescence at 460 nm (blue) in HepG2 cell free culture (AID 720685); note: % is set by controls: 0 for no effect and ±100 for the full control effect
In short: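 Compound (23 nL) or DMSO pinned into cell-free MEM with 10% FBS; blue fluorescence read at 405/460 nm excitation/emission, expressed as auto-fluorescence equivalency to triamterene.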

[9] = ratio activity, negative = MMP loss: at 83.2 µM (top of the series) unless noted
Tags give direction and shape of the fitted curve or compound fluorescence and quenching.

**Q.** For OCC1CCCO1 (centres undefined), which Potency [1] is on record?
**A.** inactive

**Q.** For CCCCC(=O)O[C@]1(C(=O)CO)[C@H](C)C[C@H]2[C@@H]3CCC4=CC(=O)C=C[C@]4(C)[C@@]3(F)[C@@H](O)C[C@@]21C, which Potency [1] is on record?
**A.** inconclusive: 33.5 µM [cytotoxic, single point]

**Q.** What about the Potency [2] of the same compound?
**A.** inconclusive: 15 µM [cytotoxic, partial curve, poor fit]

**Q.** What about the Potency [3, 9] of the same compound?
**A.** active: 10.6 µM

**Q.** And the Potency [4]?
**A.** active: 0.0043 µM [inconclusive]

**Q.** And the Potency [5]?
**A.** inconclusive: 0.0169 µM [activator, full curve]

**Q.** For Cc1c(C)c2c(c(C)c1O)CC[C@@](C)(CCC[C@H](C)CCC[C@H](C)CCCC(C)C)O2, which Potency [6] is on record?
**A.** inactive

**Q.** What about the Potency [3, 9] of the same compound?
**A.** inactive

**Q.** With O=C(O)c1ccccc1-n1cc(C(=O)O)c(=O)c2cc(Nc3c(F)cc(F)cc3Cl)c(Cl)cc21 as the compound, how does the Potency [1] read?
**A.** inactive

**Q.** Which results are given for Clc1ccccc1-c1nc(-c2ccncc2)no1?
**A.** Potency [6]: active: 6.68 µM; Potency [5]: inconclusive: 6.74 µM [inhibitor, full curve]

**Q.** What does the source list for C=CC(C)(C)C?
**A.** Potency [6]: inconclusive: 71 µM [activator, single point]; Potency [3, 9]: inconclusive: 34.4 µM [activator, partial curve, poor fit]; ratio activity, negative = MMP loss [3, 9]: inconclusive: 6.39%

**Q.** What does the source list for CC(=O)Nc1ccc(S(=O)(=O)Cl)cc1?
**A.** Potency [6]: inconclusive: 68.5 µM [activator, single point]; Potency [3, 9]: inconclusive: 27.3 µM [activator, partial curve, poor fit]; Potency [5]: inactive

**Q.** What does the source list for c1ccc(CSCc2ccccc2)cc1?
**A.** Potency [6]: inactive; Potency [3, 9]: active: 43.1 µM; Potency [4]: inactive; Potency [5]: inconclusive: 43.5 µM [activator, single point]

**Q.** Which Potency [6] does the source give for O=C(CCCN1CCC(O)(c2cccc(C(F)(F)F)c2)CC1)c1ccc(F)cc1 here?
**A.** inactive

**Q.** And the Potency [3, 9]?
**A.** inconclusive: 29.8 µM [activator, partial curve]

**Q.** And the Potency [5]?
**A.** inactive

**Q.** Which Potency [1] does the source give for c1ccc2c(c1)c1cccc3ccc4cccc2c4c31 here?
**A.** active: 3.04 µM

**Q.** What about the Potency [7] of the same compound?
**A.** inconclusive: 34.1 µM [falling, partial curve, poor fit]

**Q.** And the Potency [8]?
**A.** inactive

**Q.** And the Potency [5]?
**A.** inconclusive: 54.6 µM [activator, single point]

**Q.** What does the source list for C[C@H](CCC(=O)O)[C@H]1CC[C@H]2[C@@H]3[C@H](O)C[C@@H]4C[C@H](O)CC[C@]4(C)[C@H]3CC[C@]12C?
**A.** Potency [1]: inconclusive: 68.8 µM [cytotoxic, single point]; Potency [7]: inconclusive: 77.2 µM [falling, partial curve, poor fit]; Potency [2]: inactive; Potency [3, 9]: inconclusive: 902 nM [activator, full curve, poor fit] and inconclusive: 27.4 µM [activator, partial curve]

**Q.** Which results are given for CCc1ccc(O)c(C(C)(C)C)c1?
**A.** Potency [6]: inactive; Potency [1]: inconclusive: 68.6 µM [cytotoxic, single point]; Potency [3, 9]: active: 8.63 µM; Potency [4]: inconclusive: 54.9 µM [cytotoxic, single point]

**Q.** Which Potency [1] does the source give for NNc1nc(-c2ccc([N+](=O)[O-])cc2)cs1 here?
**A.** inconclusive: 15.4 µM [cytotoxic, partial curve]

**Q.** And the Potency [2]?
**A.** active: 17.2 µM

**Q.** And the Potency [3, 9]?
**A.** active: 1.37 µM

**Q.** What about the Potency [4] of the same compound?
**A.** inconclusive: 19.5 µM [cytotoxic, partial curve]

**Q.** What about the Potency [5] of the same compound?
**A.** inconclusive: 38.9 µM [cytotoxic, partial curve]

**Q.** What does the source list for CC(=O)OCC(=O)[C@@]1(O)[C@H](C)C[C@H]2[C@@H]3CCC4=CC(=O)C=C[C@]4(C)[C@@]3(F)[C@@H](O)C[C@@]21C?
**A.** Potency [6]: inconclusive: 0.0051 µM [activator, full curve, poor fit]; ratio activity, negative = MMP loss ([3]; at 39.1 µM (top of the series)): inconclusive: -15.5%; ratio activity, negative = MMP loss ([3]; at 83.2 µM (top of the series)): inconclusive: 6.03%
